Laboratory results from the supplement of paper PMC3334620.
Over roughly 33,000 sequences, “E-score (-0.5 to 0.5)” has its median near -0.054; the highest 2% begin near 0.35. The list shows a part of the results.

Each sequence was assayed against T1, Stb5 (UniProt P38699) (assay: PBM E-score (8-mer binding enrichment) (E-score (-0.5 to 0.5)); higher = stronger / more preferred TF binding; most listed sequences are background and not binding sites). Settings: protein concentration: 200 nM; construct: GST-full length.
T1 sequence: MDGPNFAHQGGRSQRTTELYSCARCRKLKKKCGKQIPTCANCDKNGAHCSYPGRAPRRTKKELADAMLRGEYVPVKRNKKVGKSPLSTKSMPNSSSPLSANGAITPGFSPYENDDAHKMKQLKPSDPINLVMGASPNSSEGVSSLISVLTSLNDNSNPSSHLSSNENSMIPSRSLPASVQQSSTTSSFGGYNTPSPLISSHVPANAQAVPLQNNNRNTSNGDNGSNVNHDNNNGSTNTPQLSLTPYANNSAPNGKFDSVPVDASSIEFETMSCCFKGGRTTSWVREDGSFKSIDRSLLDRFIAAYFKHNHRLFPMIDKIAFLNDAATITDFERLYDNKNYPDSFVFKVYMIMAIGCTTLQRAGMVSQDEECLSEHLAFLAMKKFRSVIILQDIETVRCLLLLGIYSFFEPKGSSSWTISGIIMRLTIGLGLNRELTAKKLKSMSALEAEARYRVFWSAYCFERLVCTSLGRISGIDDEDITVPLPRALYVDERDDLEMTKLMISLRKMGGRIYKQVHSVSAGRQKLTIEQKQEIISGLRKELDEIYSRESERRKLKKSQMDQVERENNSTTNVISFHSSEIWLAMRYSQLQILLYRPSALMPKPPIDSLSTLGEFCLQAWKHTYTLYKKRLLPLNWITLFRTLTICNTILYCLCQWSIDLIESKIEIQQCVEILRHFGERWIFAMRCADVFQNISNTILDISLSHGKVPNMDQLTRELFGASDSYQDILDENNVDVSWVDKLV
Method: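 Universal 'all 10-mer' protein binding microarrays (Agilent AMADID 015681) probed with GST-tagged S. cerevisiae TFs (full-length or DBD) made by in vitro transcription/translation (PURExpress), about 100-200 nM. Bound TF was detected with fluorescent anti-GST. Each ungapped 8-mer (which stands for itself and its reverse complement) is scored by the PBM enrichment score (E-score), a modified Wilcoxon-Mann-Whitney statistic from -0.5 to +0.5, computed with the Universal PBM Analysis Suite. Scale: above 0.35 generally sequence-specific binding.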

| Sequence | PBM E-score |
| --- | --- |
| CTTCGGCA | 0.209 |
| AGGTTCTC | -0.139 |
| GCCTGCTA | -0.107 |
| AGTGAGGC | -0.1 |
| CCACCCAC | -0.0184 |
| AGCACGAA | -0.0658 |
| TCAAACGA | -0.149 |
| GACATATA | 0.183 |
| TACTGCGA | -0.0885 |
| CACGGACA | 0.211 |
| AGGCCCCT | -0.1 |
| ATTCATTC | -0.0144 |
| CATTTTAC | 0.0886 |
| AGACATCC | -0.0773 |
| AGCCATAA | -0.137 |
| GAGACTTA | -0.164 |
| CTCCATGA | -0.0472 |
| AAGCGTAA | -0.0172 |
| TAGTAACA | -0.138 |
| AAATTGTA | -0.134 |
| GCAGCTTA | -0.132 |
| CCCCAAGA | -0.155 |
| ACGAGTTA | -0.106 |
| ATTGTATG | -0.145 |
| CAGCCGTC | -0.00175 |

| Sequence | PBM E-score |
| --- | --- |
| AATGCCTC | -0.118 |
| CGCTATTC | 0.196 |
| GTCTTGTA | -0.145 |
| ATCTGGCC | 0.0703 |
| ATACCGCC | 0.434 |
| TAATTGCA | -0.127 |
| GTCTAGAC | -0.207 |
| CCTCCCAC | -0.0348 |
| TAATGGTA | 0.0811 |
| CTCATTCC | -0.0501 |
| ACATACCA | 0.0536 |
| GGTCGGGA | 0.325 |
| CCGGATCG | 0.22 |
| ACGTAACT | -0.117 |
| ATTGCGGG | 0.183 |
| AACGTTAT | 0.174 |
| AGTATTTG | -0.171 |
| GATGACGC | -0.0402 |
| AGAGCAAC | -0.181 |
| GAAAGACA | -0.0983 |
| CGCATGGC | 0.046 |
| CGGCAATC | 0.185 |
| AGTCACGA | -0.155 |
| CCGGAGGC | 0.131 |
| CTCTCACA | -0.138 |

| Sequence | PBM E-score |
| --- | --- |
| CGTTACTA | 0.0452 |
| CTGTGAGA | -0.266 |
| AAGCGCTC | 0.0272 |
| GTGTGCCA | -0.15 |
| ATTATCCG | 0.359 |
| AAGTCAAT | 0.0053 |
| ATTCCTAC | -0.0968 |
| AAGACCGA | 0.414 |
| AGCGCTAT | 0.128 |
| GCAGTTCA | -0.151 |
| CGTTCTGA | -0.179 |
| CCGGGTTA | 0.245 |
| AGAACTCG | -0.0793 |
| CAGGTTTC | -0.133 |
| CAAACACC | 0.352 |
| ATTCCGGC | 0.173 |
| CAATCTGC | 0.0358 |
| CAGCGTCC | 0.0636 |
| GATGAGTA | -0.219 |
| CTCTAAGA | 0.0752 |
| GACTCAAA | 0.013 |
| CCTGCCCC | 0.0235 |
| CCACTTAG | -0.247 |
| AACGCTCA | -0.111 |
| CTATTATC | 0.00658 |

| Sequence | PBM E-score |
| --- | --- |
| CAGTTTAG | -0.0908 |
| CGGGATGA | 0.196 |
| CAAACCTC | -0.132 |
| CGTCCTGA | -0.273 |
| CCCTCGTC | -0.0697 |
| CTCAAAAC | -0.0766 |
| ATAAGTGC | 0.242 |
| GAATCTTA | -0.147 |
| CAAAACCA | -0.119 |
| GTCTCAAA | -0.116 |
| GATTCACA | -0.0699 |
| AAAACCTG | -0.33 |
| GTAGGGAA | 0.0417 |
| GTGGCTGA | -0.0545 |
| ACAGCTTC | -0.199 |
| GTCTTACA | -0.23 |
| ACCTGCGA | -0.0142 |
| ATAGTTCC | 0.313 |
| AACTAACT | -0.00013 |
| GCCGGTAA | 0.28 |
| CATCTCGA | -0.287 |
| CCGGCCTC | 0.234 |
| TCAAAAGA | 0.0921 |
| GCAGAACC | 0.00461 |
| CAAATTCG | 0.221 |

| Sequence | PBM E-score |
| --- | --- |
| CCATCACG | 0.0916 |
| AGACTTGG | -0.17 |
| GTAGTGCA | -0.219 |
| ACACGACC | 0.109 |
| GAACTGTA | -0.0888 |
| CTGTCAAC | -0.214 |
| CTGCTCAC | -0.202 |
| CAAATAGG | -0.113 |
| GGCATCAA | 0.0936 |
| GACGACCA | -0.0704 |
| AATCAGCA | -0.155 |
| ACAACATA | -0.0153 |
| AGGAAACA | 0.0202 |
| AGGATAAA | -0.129 |
| AATTCGCG | 0.0722 |
| ACCAACGC | -0.0565 |
| CTGATGGC | -0.0621 |
| GTATTCTA | -0.0377 |
| ATTGTTAG | -0.0153 |
| TAGCTCGA | -0.0447 |
| AATTTGTA | -0.121 |
| CCTTCTGC | -0.0972 |
| ATCTATGG | -0.119 |
| AATGGGTG | -0.294 |
| ATACTTGG | -0.137 |

| Sequence | PBM E-score |
| --- | --- |
| GGGGAGTA | 0.0545 |
| AAAGGCCG | 0.446 |
| GTGTCAAA | 0.08 |
| ACGAGACA | -0.206 |
| ATTCACTC | 0.0479 |
| AAAACCAA | -0.0965 |
| ACTGTTCT | -0.189 |
| ATGAATTA | -0.111 |
| CCTACGTC | -0.049 |
| ATCAGTCG | 0.0387 |
| CATTAACC | -0.00636 |
| CATTCCCG | 0.203 |
| GAATACAA | 0.0475 |
| GCGAAAGA | -0.0991 |
| AGCGAAAT | -0.0849 |
| CGTTGCGC | 0.0674 |
| GACAAAAA | 0.0484 |
| ATCGGGGG | 0.289 |
| CGAAGGTC | 0.104 |
| ATTGGCTC | -0.229 |
| ACGCCCTC | -0.0589 |
| CATCCTCA | -0.139 |
| AATTCCAG | -0.0499 |
| AATTTAAG | -0.0487 |
| CAGTGATA | -0.0765 |

| Sequence | PBM E-score |
| --- | --- |
| ACATGTCC | 0.116 |
| CAGTACAA | -0.0509 |
| AAAAGCTT | -0.118 |
| GTACGGGA | 0.0793 |
| AATCTCAC | -0.188 |
| ATTTCAAG | -0.152 |
| GGCAGTAC | 0.0214 |
| CCATTGGG | -0.0421 |
| GTATACAA | 0.0829 |
| GCGCATCC | 0.0779 |
| AAGAGAGA | -0.325 |
| GCCGGTAC | 0.314 |
| ATTAAGCC | 0.164 |
| CTCTGAAA | -0.187 |
| AGCGACCA | -0.135 |
| ACTAGGAA | -0.0827 |
| ATCTCCCG | 0.124 |
| CGTTAGTC | 0.0922 |
| CGGACGTA | 0.407 |
| AATTAGGT | -0.0707 |
| CCGCCGAC | 0.356 |
| ATCGAATC | -0.00403 |
